Assay results reported in the supplement of paper PMC11417369.
± gives the standard deviation of the averaged measurements. This is one part of the list.

Tested on: PfAP2-EXP AP2 domain (GST-tagged)
Test: gcPBM binding intensity (ln(normalized median fluorescence intensity)); higher = stronger DNA binding
In short: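 Binding intensity values are the highest Masliner-normalised natural-log median intensity among replicate spots of either probe orientation. The binding step lasted 1 h in 1× PBS with 1% milk, 0.2 mg/ml BSA, 0.5% salmon testes DNA and 0.03% Triton X-100, using GST-tagged P. falciparum DNA-binding domains expressed in E. coli on an Agilent 4 × 180k array of primer-extended double-stranded 36-bp intergenic genomic probes plus negative controls. Alexa488 anti-GST antibody and a 488 nm scan detected bound protein.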

| Sequence | gcPBM binding intensity (ln) |
| --- | --- |
| GTTTATTTATTATAATGTACATTAGTCTGAGGAGTT [XGTACX_site4035] | 8.96 ± 0.77 |
| TTTTATTTATATATAGTGCATATTATTATAAAACAA | 8.37 ± 0.24 |
| ATATATATATATATATGTACATATGTTAATCTGCAT [XGTACX_site1068] | 10.2 ± 0.31 |
| CTTTTTTTCCATTAAGCATGCACATTCATATTTACT [TGCATGCA_site170] | 9.4 ± 0.44 |
| TATATATATATAGGTTGTACATTTTGATGTTTACGT [XGTACX_site5503] | 10 ± 0.18 |
| CACACCCACAAAAACACACACAAAGGTGTTCTTATA [CACACA_site1293] | 9.43 ± 0.64 |
| ATAACATTCATATTCACACAAAAATATACTACATAG [CACACA_site4529] | 8.77 ± 0.49 |
| TATATATATATATATACACACATATATATATTTATA [CACACA_site627] | 10.3 ± 0.18 |
| TATTTATTTTTTTGCACACATATTTTACATTTTAAT [CACACA_site3181] | 9.09 ± 0.28 |
| TGTAGTCTGGAGAAACGTACATAGTATCTGGTAACC [XGTACX_site4939] | 8.71 ± 0.38 |
| ATTGAAAATTGTTGCACACATAATAATTAAATATAT [CACACA_site1857] | 8.37 ± 0.23 |
| ATATAAAAAGTGTATCGTACATTTACTTATTTTATA [XGTACX_site6249] | 8.46 ± 0.3 |
| ATAAAAAAAGGACACACACACATATATATATATATA [CACACA_site5662] | 10.2 ± 0.42 |
| TATAAATATGTTCTTACACACACGAATATAAATATG [CACACA_site7537] | 8.45 ± 0.38 |
| TTACATAATATATGTACACACGCAAATACTTATAAT [CACACA_site7995] | 8.74 ± 0.44 |
| TATATTTCTTATTTCTTATTTTGTCATCACCTTTTT [CACACA_negctrl_site1115] | 8.73 ± 0.42 |
| AAAAAAATCACATAAAATACTTTATTTTATATTATA [GTGCAC_negctrl_site372] | 7.89 ± 0.36 |
| AAATTACTTTCACAGTGTACTTGGAAAAAAAAAAGA [XGTACX_site1046] | 8.34 ± 0.15 |
| TTTTTTTTTTTTTTTTGTACGTAATATATGATTAAT [XGTACX_site6876] | 8.42 ± 0.54 |

| Sequence | gcPBM binding intensity (ln) |
| --- | --- |
| CATTTTATCAAAAGTGGTACAACCCTTTCAAAAAAT [XGTACX_site341] | 8.07 ± 0.28 |
| AGATATAATAAATATACACACATATATATATATATA [CACACA_site962] | 10.1 ± 0.32 |
| TGAAAAATGTTGATGTGTACTTATATAGTGTGTTAA [XGTACX_site2100] | 8.5 ± 0.23 |
| TAATTTTATATATGCACACAAAATATGTTCATATAA [CACACA_site4076] | 8.405 ± 0.035 |
| TTTAACATAAATTAAACACACAATATAATACATTAA [CACACA_site1237] | 8.44 ± 0.42 |
| TATATATATAAACACACACACACATATATATATATT [CACACA_site8814] | 9.02 ± 0.23 |
| ATAGTATAACAGCAATGTACACATATTTGTGTATAT [XGTACX_site7899] | 8.55 ± 0.32 |
| ATATATATTTAAATGTGTACTCATTTATTTTATGTC [XGTACX_site4984] | 8.7 ± 0.21 |
| TGATATTTATAATAAATATTATAATAAAATCAAACA [XGTACX_negctrl_site219] | 8.28 ± 0.38 |
| TTTTTTTTTTTTGTCACACATATATTTGTATTTATA [CACACA_site5234] | 8.58 ± 0.38 |
| ATATATATTTTTATTTGTACATAATTTTTTTTGTGA [XGTACX_site6378] | 8.66 ± 0.34 |
| ATATATGTAATAAATAGTACACACACACATATATAT [XGTACX_site2817] | 9.04 ± 0.35 |
| ATAAAATTGTTTAAATGTACATATGAACAGTCAGTA [XGTACX_site5140] | 8.71 ± 0.28 |
| TTTTTTTTTTTTTGCACACACATATATAGATATATA [CACACA_site7784] | 8.59 ± 0.38 |
| AAAAAAAATTAATAGGGTACATGAAAAGTGGAATAT [XGTACX_site618] | 9.26 ± 0.45 |
| CACATACACATACAAACACACATTAGATATAAATAT [CACACA_site6854] | 8.59 ± 0.5 |
| ATAGAAGAAATATGCACACATACATTGAAATGTTTT [CACACA_site321] | 8.41 ± 0.34 |
| AACAAAATAGGGAACACACACATGTCAATATATAAA [CACACA_site2596] | 8.79 ± 0.53 |
| AAAAAAAAATTAAAAACACACATATAAATAAATATA [CACACA_site6845] | 8.48 ± 0.48 |

| Sequence | gcPBM binding intensity (ln) |
| --- | --- |
| CCATTAAGACACATTGCACACGTGCACCCATAGAAA [CACACA_site4388] | 9.55 ± 0.83 |
| TGAACACGCACAAATACACACAAAAAAAATAAATAA [CACACA_site6257] | 8.45 ± 0.67 |
| TTTTTTTTTAAATAATGTACTTTTCATTATTTAGAT [XGTACX_site1706] | 8.37 ± 0.46 |
| AAAGAAAAAAATAATTGTACATTTATATTTAATTTA [XGTACX_site8003] | 8.1 ± 0.4 |
| TTTTTATTTATTAATACACACACACCCACCCACAAA [CACACA_site7965] | 9.53 ± 0.65 |
| TTTTTTTTGTGTATTTGTACATAATATATATATATA [XGTACX_site7092] | 9.68 ± 0.19 |
| TCGTAATTTTTTTTTATATATTAGGAATTTATAAAA [XGTACX_negctrl_site409] | 8.11 ± 0.42 |
| TAATACCATTGTCATGCATGCACATTATTACTCTAA [TGCATGCA_site160] | 9.71 ± 0.15 |
| ATATTATATTTCTTTTGTACATATTATATAATATAT [XGTACX_site7198] | 8.86 ± 0.14 |
| GTAGGATTTTCTTTTGTGCGCAATATAAAAAGAAAA [GTGCAC_site9514] | 8.76 ± 0.31 |
| AAAAGGTATGTTATACATAGATATGCACATATATGT [TGCATGCA_negctrl_site96] | 8.7 ± 0.29 |
| ATTAATATAAAAAGGTAAATGGATGTAATATATATA [XGTACX_negctrl_site2] | 8.85 ± 0.23 |
| AAAATTGTTATTTTATGTACTTATATTTATTTATTT [XGTACX_site3478] | 8.53 ± 0.27 |
| ATATATATAATATAATGTACATATATTTTATTTTTA [XGTACX_site3819] | 8.52 ± 0.014 |
| TAATGTATTATATTTAGTACATATAAAAATAATTTT [XGTACX_site6886] | 8.11 ± 0.41 |
| ACGTATTAGATAAATACACACACAAGCATATATTTT [CACACA_site9135] | 8.44 ± 0.35 |
| AAAGCACCCAAGAATACACACAAATATTATAAAAAA [CACACA_site111] | 8.57 ± 0.58 |
| TATATACATTTATGTACACACACATATATGTATATT [CACACA_site8971] | 8.59 ± 0.34 |
| ATATATTAATTTAATTGTACGAATAAAAAAAAAAAA [XGTACX_site223] | 8.7 ± 0.64 |
